Laboratory results from the supplement of paper PMC11369174, “Proteome-scale characterisation of motif-based interactome rewiring by disease mutations” (Molecular Systems Biology, 2024).
The other results are listed elsewhere or left out. Read counts after selection give these values, which scatter widely.

T1: EPS15_EH__P42566_121_215
T1 chain: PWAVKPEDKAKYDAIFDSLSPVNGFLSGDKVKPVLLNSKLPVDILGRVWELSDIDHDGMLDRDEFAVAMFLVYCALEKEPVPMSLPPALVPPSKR

T2: MSN_FERM_1_P26038_1_322
T2 chain: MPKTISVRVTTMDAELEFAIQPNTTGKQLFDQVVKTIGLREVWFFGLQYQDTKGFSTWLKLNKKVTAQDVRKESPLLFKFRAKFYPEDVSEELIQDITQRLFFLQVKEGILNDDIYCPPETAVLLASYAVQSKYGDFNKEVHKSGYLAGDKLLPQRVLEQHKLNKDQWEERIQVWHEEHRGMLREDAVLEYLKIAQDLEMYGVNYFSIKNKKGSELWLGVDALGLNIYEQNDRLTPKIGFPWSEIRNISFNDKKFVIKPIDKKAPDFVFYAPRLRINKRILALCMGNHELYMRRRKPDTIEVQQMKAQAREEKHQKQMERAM

T3: RDX_FERM_1_P35241_5_295
T3 chain: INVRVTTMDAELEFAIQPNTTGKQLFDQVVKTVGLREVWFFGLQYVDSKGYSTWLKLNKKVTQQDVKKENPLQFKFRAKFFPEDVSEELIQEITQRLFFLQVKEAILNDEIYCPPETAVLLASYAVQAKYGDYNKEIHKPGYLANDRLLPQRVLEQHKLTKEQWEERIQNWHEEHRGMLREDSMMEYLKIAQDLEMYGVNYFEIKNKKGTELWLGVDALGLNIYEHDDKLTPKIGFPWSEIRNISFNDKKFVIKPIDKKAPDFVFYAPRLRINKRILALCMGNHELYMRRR


Biological target: T1, EPS15_EH__P42566_121_215
Test: mean normalised NGS count of phage-displayed peptide after selection on bait (% of reads); baits are purified protein domains named by gene / domain / UniProt id / residues; peptides come from disordered regions of human proteins; higher = stronger enrichment / binding
Conditions: replicate selections in which the peptide was seen: 4

Binder | mean normalised NGS count
SSPLYIQNPFETSLNI [MTPAP 471-486 wt] | 0.0311
NARFGEEHSANPFHWD [ABCA4 1858-1873 mut P78363.Y1858N] | 0.0162
DPEPTNPFQPIASVII [ARL13B 250-265 wt] | 0.0801
QKSSSHERRAFLQAIL [SMARCA2 1206-1221 wt] | 0.0549
QKSSSHERRAFLQAIL [SMARCA4 1206-1221 wt] | 0.0549
NKPDSSPLYIQNPFET [MTPAP 467-482 wt] | 0.0163
DVYARFGEEHSANPFH [ABCA4 1856-1871 wt] | 1.19

Biological target: EZR_FERM_1_P15311_2_295
Test: as above
Conditions: replicate selections in which the peptide was seen: 4

EZR_FERM_1_P15311_2_295, sequence (chain, as listed by the source): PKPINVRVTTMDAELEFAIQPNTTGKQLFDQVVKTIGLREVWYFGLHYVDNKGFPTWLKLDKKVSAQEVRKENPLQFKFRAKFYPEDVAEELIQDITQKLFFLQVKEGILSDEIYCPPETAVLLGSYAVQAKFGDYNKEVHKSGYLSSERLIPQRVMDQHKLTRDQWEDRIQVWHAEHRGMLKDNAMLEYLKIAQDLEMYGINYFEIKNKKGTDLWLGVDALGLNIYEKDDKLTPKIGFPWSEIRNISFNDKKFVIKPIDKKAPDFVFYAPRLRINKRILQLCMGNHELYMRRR

Binder | mean normalised NGS count
GYEVKEDIGVGSYSVA [RPS6KA3 421-436 wt] | 0.143
EEIFHMTYDLASAVVT [HCN3 282-297 mut O60741.R297T] | 16
VFQLPTLNFSPEQVAS [SIX3 79-94 mut O95343.M79V] | 0.221
LPEDTGYYRVTATNTA [TTN 32786-32801 wt] | 0.485
EEIFHMTYDLASAVVT [HCN1 282-297 mut O60741.R297T] | 16

Biological target: T2, MSN_FERM_1_P26038_1_322
Test: as above
Conditions: replicate selections in which the peptide was seen: 6

Binder | mean normalised NGS count
GYEVKEDIGVGSYSVA [RPS6KA3 421-436 wt] | 1.82
LFQITTSPGWDGLLAP [SCN2A 1717-1732 mut P35498.A1724P] | 3.34
EYVLQNTSPEGIPTIQ [SYNE1 3345-3360 mut Q8NF91.S3346Y] | 14.4
EEIFHMTYDLASAVVT [HCN3 282-297 mut O60741.R297T] | 0.134
SYSISSILGITSPSAD [PAX5 178-193 mut Q02548.G183S] | 3.07
LFQITTSPGWDGLLAP [SCN8A 1717-1732 mut P35498.A1724P] | 3.34
FYGVVERPVDISLSPY [SH3BP2 152-167 mut P78314.A155V] | 0.186
LFQITTSPGWDGLLAP [SCN3A 1717-1732 mut P35498.A1724P] | 3.34
VFQLPTLNFSPEQVAS [SIX3 79-94 mut O95343.M79V] | 3.64
LFQITTSPGWDGLLAP [SCN10A 1717-1732 mut P35498.A1724P] | 3.34
EEIFHMTYDLASAVVT [HCN1 282-297 mut O60741.R297T] | 0.134
LFQITTSPGWDGLLAP [SCN1A 1717-1732 mut P35498.A1724P] | 3.34
LFQITTSPGWDGLLAP [SCN5A 1717-1732 mut P35498.A1724P] | 3.34
LFQITTSPGWDGLLAP [SCN9A 1717-1732 mut P35498.A1724P] | 3.34

Biological target: EZR_FERM_1_P15311_2_295
Test: as above
Conditions: replicate selections in which the peptide was seen: 3

Binder | mean normalised NGS count
LFQITTSPGWDGLLAP [SCN2A 1717-1732 mut P35498.A1724P] | 0.0868
EYVLQNTSPEGIPTIQ [SYNE1 3345-3360 mut Q8NF91.S3346Y] | 0.178
AQQDSYEFVSPSPPAD [BARD1 175-190 wt] | 42.1
KWEPLQQVDTSTRTHN [KRT1 211-226 mut P04264.L214P] | 0.0761
SYSISSILGITSPSAD [PAX5 178-193 mut Q02548.G183S] | 3.61
LFQITTSPGWDGLLAP [SCN8A 1717-1732 mut P35498.A1724P] | 0.0868
LFQITTSPGWDGLLAP [SCN3A 1717-1732 mut P35498.A1724P] | 0.0868
LFQITTSPGWDGLLAP [SCN10A 1717-1732 mut P35498.A1724P] | 0.0868
APQTYAEYAISQPLEG [ERCC1 56-71 wt] | 4.59
LFQITTSPGWDGLLAP [SCN1A 1717-1732 mut P35498.A1724P] | 0.0868
LFQITTSPGWDGLLAP [SCN5A 1717-1732 mut P35498.A1724P] | 0.0868
LFQITTSPGWDGLLAP [SCN9A 1717-1732 mut P35498.A1724P] | 0.0868

Biological target: T1, EPS15_EH__P42566_121_215
Test: as above
Conditions: replicate selections in which the peptide was seen: 6

Binder | mean normalised NGS count
DIFVQNLVPDWWGPDG [SLC12A3 323-338 mut P55017.R334W] | 0.404
TSWLMSLENPLSPFSL [TSC2 1206-1221 mut P49815.S1221L] | 0.62
NPFIATSGPGHLSHMP [CHD7 224-239 mut Q9P2D1.V238M] | 0.316
NPFIATSGPGHLSHVP [CHD7 224-239 wt] | 4.37
DAYLDSLFDPVLSYGY [MYO15A 2388-2403 mut Q9UKN7.D2403Y] | 1.16
DAYLDSLFDPVLSYGD [MYO15A 2388-2403 wt] | 0.694
DFFLQSLYSLMGLDAG [SLC26A1 552-567 mut Q9H2B4.T562M] | 2.42
TSWLMSLENPLSPFSS [TSC2 1206-1221 wt] | 0.113
LNVAQEQFGGNPFASV [UBQLN2 280-295 mut Q9UHD9.A282V] | 5.54
EAWLLAEIGAVTLVSA [TSEN34 56-71 mut Q9BSV6.R58W] | 1.38

Biological target: T3, RDX_FERM_1_P35241_5_295
Test: as above
Conditions: replicate selections in which the peptide was seen: 4

Binder | mean normalised NGS count
EYVLQNTSPEGIPTIQ [SYNE1 3345-3360 mut Q8NF91.S3346Y] | 8.84
RGFALHAFTFLWDPWN [SCN5A 179-194 mut Q14524.R190W] | 0.0592

Biological target: EPS8_SH3_1_Q12929_534_598 (clone: EPS8L1_SH3_1_Q12929_534_598)
Test: as above
Conditions: replicate selections in which the peptide was seen: 6

Binder | mean normalised NGS count
PPPPPAPDYVLPPSLH [NR5A1 130-145 wt] | 10.4
PLPPPAPDYVLPPSLH [NR5A1 130-145 mut Q13285.P131L] | 52.7

Biological target: NCK1_SH3_1_P16333_5_60
Test: as above
Conditions: replicate selections in which the peptide was seen: 6

Binder | mean normalised NGS count
PPPPPAPDYVLPPSLH [NR5A1 130-145 wt] | 31.3
PLPPPAPDYVLPPSLH [NR5A1 130-145 mut Q13285.P131L] | 1.66

Biological target: T3, RDX_FERM_1_P35241_5_295
Test: as above
Conditions: replicate selections in which the peptide was seen: 3

Binder | mean normalised NGS count
EEIFHMTYDLASAVVT [HCN3 282-297 mut O60741.R297T] | 2.2
EEIFHMTYDLASAVVT [HCN1 282-297 mut O60741.R297T] | 2.2

Biological target: T1, EPS15_EH__P42566_121_215
Test: as above
Conditions: replicate selections in which the peptide was seen: 5

Binder | mean normalised NGS count
QKSSSHEWRAFLQAIL [SMARCA2 1206-1221 mut P51531.R1213W] | 37.8
QKSSSHEWRAFLQAIL [SMARCA4 1206-1221 mut P51531.R1213W] | 37.8
VAANKSQSWLAELLRW [SATB2 508-523 mut Q9UPW6.G515S] | 28.1

Biological target: T2, MSN_FERM_1_P26038_1_322
Test: as above
Conditions: replicate selections in which the peptide was seen: 3

Binder | mean normalised NGS count
AQQDSYEFVSPSPPAD [BARD1 175-190 wt] | 0.103

Biological target: EZR_FERM_1_P15311_2_295
Test: as above
Conditions: replicate selections in which the peptide was seen: 2

Binder | mean normalised NGS count
YAEYAISQPLEGAGAT [ERCC1 60-75 wt] | 0.00817
EYVMSIDSLQLGAAED [CPT1A 486-501 mut P50416.Y498C] | 0.0887
RGFALHAFTFLWDPWN [SCN5A 179-194 mut Q14524.R190W] | 0.101
FYGVVERPVDISLSPY [SH3BP2 152-167 mut P78314.A155V] | 0.0589
KEQSEKAAMYDIISST [NIPBL 336-351 mut Q6KC79.P351T] | 0.00527

Biological target: EPS8_SH3_1_Q12929_534_598 (clone: EPS8L1_SH3_1_Q12929_534_598)
Test: as above
Conditions: replicate selections in which the peptide was seen: 3

Binder | mean normalised NGS count
NVLPIQVDYDAYDAQV [DEPDC5 451-466 mut O75140.A452V] | 0.824
KPATDPGLFPMIPDYP [EGR2 212-227 wt] | 0.102
NALPIQVDYDAYDAEV [DEPDC5 451-466 mut O75140.Q465E] | 0.0151

Biological target: T2, MSN_FERM_1_P26038_1_322
Test: as above
Conditions: replicate selections in which the peptide was seen: 2

Binder | mean normalised NGS count
KWEPLQQVDTSTRTHN [KRT1 211-226 mut P04264.L214P] | 1.84
EYVMSIDSLQLGAAED [CPT1A 486-501 mut P50416.Y498C] | 0.259
APQTYAEYAISQPLEG [ERCC1 56-71 wt] | 0.0308

Biological target: T3, RDX_FERM_1_P35241_5_295
Test: as above
Conditions: replicate selections in which the peptide was seen: 5

Binder | mean normalised NGS count
KWEPLQQVDTSTRTHN [KRT1 211-226 mut P04264.L214P] | 6.61

Same assay, conditions: replicate selections in which the peptide was seen: 6

Binder | mean normalised NGS count
SYSISSILGITSPSAD [PAX5 178-193 mut Q02548.G183S] | 18
VFQLPTLNFSPEQVAS [SIX3 79-94 mut O95343.M79V] | 0.231

Biological target: T2, MSN_FERM_1_P26038_1_322
Test: as above
Conditions: replicate selections in which the peptide was seen: 5

Binder | mean normalised NGS count
RGFALHAFTFLWDPWN [SCN5A 179-194 mut Q14524.R190W] | 1.51

Biological target: EPS8_SH3_1_Q12929_534_598 (clone: EPS8L1_SH3_1_Q12929_534_598)
Test: as above
Conditions: replicate selections in which the peptide was seen: 5

Binder | mean normalised NGS count
KPAMDPGLFPMIPDYP [EGR2 212-227 mut P11161.T215M] | 1.15
MGVPPLPPPAPDYVLP [NR5A1 126-141 mut Q13285.P131L] | 1.07

Biological target: NCK1_SH3_1_P16333_5_60
Test: as above
Conditions: replicate selections in which the peptide was seen: 5

Binder | mean normalised NGS count
MGVPPLPPPAPDYVLP [NR5A1 126-141 mut Q13285.P131L] | 0.15
